B1: LINE1-mini (parent)
chain: GGCAGAGCUCAACACAGCGUGGCAAAGUGGCUGUGGCUAGACUGCC

Read counts are not given, so values of variants with three or more changes are uncertain.

In this series the parent is B1. In words: self-cleavage, relative activity (ratio to wild type); higher = more cleavage; in vitro, sequencing; the parent is a self-cleaving ribozyme.
As for G35C A41U G44A, the self-cleavage came to 0.03.
For A39G C42U C45U C46A the value was 0.11.
Next, C31G G35A G36C C37A: 0.14; U34G G35C A39G: 0.01.
For U32A U43A C46A the value was 0; for G40U U43A G44C, 0.03; for A39G G40U C45G, 0.22.
As for G30U A41G U43C G44U, the self-cleavage turned out to be 0.06.
Next, U32G G35U G44U: 0.02; C31U G35U C45A: 0.13; C37A G40C C46A: 0.28.
For G35A G44U C46A the value was 0.05.
Next, C31U C37U G40U: 0.02; C31A G40U C42U: 0.04.
Regarding C31U C42G G44U, the self-cleavage was 0.02.
Next, U34G C37G G40A: 0.05; G30U G36C C42A: 0.06.
For G30U C31A C42A the value was 0.06; for U34C C37A A41G C45U, 0.02; for U32C C37A U38C A41G C42U C45U, 0.03.
Next, G30C C42U C46G: 0.08; G33U U38G G44A: 0.02.
Take C31G A41U C46G: the self-cleavage was 0.1.
Take G36A U38G A41C: the self-cleavage stood at 0.
For C31G G36C C46U the value was 0.01.
Regarding C31U G36A A39G, the self-cleavage stood at 0.01.
As to A41G C42U C45U, the self-cleavage was 0.13.
Next, G30U C31U A39G: 0.08; C31U G35A C37G G40C: 0.02; G33C C45G C46A: 0.02.
For G30C G35C C37U the value was 0.05; for C31A U38C A39U, 0.02; for U34A C37A C42A, 0.01.
For G30C G35U A39U the value was 0.09; for U34C C37A U38G C42A, 0.02; for U32A G33U A41G, 0.
G33C U38A A41G: the self-cleavage came to 0.15.
Take C31A U32C A41U: the self-cleavage is 0.12.
Next, G33C C42U U43A: 0.08.
As to U32A G33A A41U C42U, the self-cleavage came out at 0.06.
For G33C G40A U43A the value was 0.04; for G30A G36A A41U, 0.07; for U32A G36C A39C, 0.05.
Next, G35C A39C C42A: 0.08.
Next, G30A G40A C46A: 0.11; G30C G33C C45U: 0.03; G40U C42A C46A: 0.06.
A39G C42G C45U: the self-cleavage came to 0.03.
As to C42G G44A C46A, the self-cleavage is 0.03.
Next, G40C C42U U43G: 0.02.
For U34C G35U G40C C45A the value was 0; for C31A G35U G40U, 0.04.
Next, G35C G36A G40A: 0.08.
For the variant G33A C42A C46U, the self-cleavage turned out to be 0.06.
Next, G35A A39C G44A: 0.04.
Next, G35C C37G C42U: 0.12; C31A G35C A39U: 0.02.
For C31A G36U C42G G44U, the self-cleavage was 0.02.
As for G33U A41G C42U, the self-cleavage was 0.06.
Next, G40C G44A C45U: 0.02; G36C C42U C45U: 0.
Next, G40C C42A C45A: 0.02; G30U G35A G40C: 0.03.
For U32C U43A C46U the value was 0.06.
With G35U G40U U43A, the self-cleavage came to 0.04.
For U32C G40U C46A the value was 0.05; for U32C C37G U43G C45U, 0.2; for G40A A41U U43A, 0.02.
For G33U U34C G36U C42G the value was 0.01.
For C31U U34A G35U C45A the value was 0.02.
On to U32G C42G G44U, for which the self-cleavage worked out at 0.05.
Next, U32G C37G G44A: 0.03; U32G C37G G44U: 0.04; G35A C45U C46G: 0.2.
In the case of G35C C42G C46G, the self-cleavage was determined as 0.06.
For G35A A39U G40U the value was 0.1.
For U32A C37G A39C G44A the value was 0.04.
With C31A G35U G36U, the self-cleavage came out at 0.03.
For G33A G36A C42A the value was 0.07; for G30A U34G C45A, 0.05; for U32G U43C C45U, 0.08.
Next, G33C U43C C45G C46A: 0.03.
Next, G36U G40U G44A: 0.05.
On to G36A A41G U43G, for which the self-cleavage turned out to be 0.
Next, G36U A41U U43G: 0.09.
In the case of G35A A39U A41C, the self-cleavage was 0.01.
For G36C C37A G44U the value was 0.1; for U38C A39G C46A, 0.17; for G30U G35U A39U, 0.05.
Regarding U34G A41G G44A, the self-cleavage worked out at 0.02.
Next, G33C G35C C37A: 0.01; U38A C42U U43A: 0.05.
Next, G30A G40A C45A: 0.14.
For U32A U34G A39G C42U the value was 0.01; for G33U A39U A41U, 0.1.
In the case of U32A G44U C45A, the self-cleavage was determined as 0.05.
For G33U G35U C45G the value was 0.05; for G33U G35U C45A, 0.02.
For G33C U38C G40A the value was 0.01; for C37A C45G C46U, 0.21; for A39U G40A G44U, 0.05.
For U32A G40A C45A the value was 0.06; for U34A G40U G44U, 0.06; for C37U U38C C46A, 0.06.
Take C31A G33A C42G: the self-cleavage is 0.2.
For U32A A41G G44A the value was 0.04; for G40A C42A U43C, 0.02; for G33U C37G A39G, 0.05.
For U32C G36U G44A the value was 0.04; for C37A U38C C46U, 0.1; for G35U C37A C45A, 0.05.
Next, G40C C42A G44C: 0.08; G30U G40C C42A G44C C45A C46U: 0.05; G30C G35U U38A: 0.06.
As to C31U G36A G40U, the self-cleavage stood at 0.03.
For G36A U38G C42U the value was 0.01; for A39U C42A U43G C45A, 0.04.

Source of the values: the RNAGym collection of RNA variant scans (doi:10.7554/elife.90254).
